Data on 72 sequences can be found in PMC10726135.

The other results are listed elsewhere or left out. At the low end of the ranking the order means little. Measured with an extract: partners may take part in the binding.

This test addresses T1, HNF4alpha8 (COS-7 nuclear extract) (UniProt P41235-5).
T1 sequence: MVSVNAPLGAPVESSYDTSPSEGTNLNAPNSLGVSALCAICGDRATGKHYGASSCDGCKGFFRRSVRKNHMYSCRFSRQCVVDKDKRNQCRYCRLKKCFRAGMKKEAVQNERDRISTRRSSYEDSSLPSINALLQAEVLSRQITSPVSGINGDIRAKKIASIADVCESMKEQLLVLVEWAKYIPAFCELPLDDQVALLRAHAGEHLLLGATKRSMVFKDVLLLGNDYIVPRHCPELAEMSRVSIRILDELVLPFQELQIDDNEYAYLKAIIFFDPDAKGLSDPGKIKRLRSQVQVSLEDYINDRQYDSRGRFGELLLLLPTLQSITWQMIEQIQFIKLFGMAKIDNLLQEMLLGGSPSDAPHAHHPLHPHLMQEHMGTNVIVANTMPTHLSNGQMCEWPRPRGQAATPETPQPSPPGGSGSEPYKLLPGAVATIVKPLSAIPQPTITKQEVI
Nature of the test: protein-binding microarray. The settings on record: COS-7 nuclear extract on double-stranded Agilent 4x180k PBM; binding buffer, salt, pH and temperature not given; high values mean tight binding; double strand, one strand shown; sequences stand for … in …GCCTAGGGAGATTAGAGTATCGGTCGA
For the sequence GAGTCTGTTGCAAGCAATGGAGAGGATTTT, the binding signal (log2 normalized intensity) is -0.685.

Turning to AGGATGTGTGCTCGAGGTGGACTTTCCCCC, the binding signal (log2 normalized intensity) came to 6.75.

Consider TAGCTTTAAAGACCAAAGATCACAGTGAAG, for which the binding signal (log2 normalized intensity) worked out at 1.91. In the case of AATGCTGGAGTTAAAGCTTTGAGGAACTAG it was -1.31; in that of TACTTATGGTTTGACCCTGCGATAAGTAGA, 2.67; in that of AGTTCCAGAAGACTACAAATTCCTCAATCC, -1.35.

In the case of GTTAACCTCCTATGATCTTTCATTCCTATT, the binding signal (log2 normalized intensity) was -0.0945.

For the sequence GAGGGTAGAGGAGCCAGAGGGGCCAGGAAC, the binding signal (log2 normalized intensity) was -1.36. The same measure for ATGACCTCTGCACCCTTCCCTGAGTTTCCA: 3.34. In the case of CACACCTGGCTATTCAGTTTTTATTTTGTA it was 0.51; in that of CTTAGGCTTTTGCACTTTACTCAGAAAGGT, 2.89; in that of AGTCATCCATCATTCATACATTTGCCTGAA, 0.432. The same measure for GTGCTTAGTATGTGCTAGGCATTTTATAGT: 1.76; for CAAAGGACAGCAGTAGAAAACAGAGAAGCC: -1.4; for TAGCCCTGCAGTGTATGACACAGCCACAAA: -1.4. On to TGGCTTTTGCCCTCAAGGAGTTTTAGATTA, for which the binding signal (log2 normalized intensity) was 1.99. In the case of TAGGCATGCAAACTTTGTTTAATGATTGCA it was 0.0707. The same measure for TGCTCAGGGAGAAGCAAATATGTGTCCTCT: 1.79; for TCACCTCGCTCCCCTCCTGTCAGTTTATTT: 2.3; for TGCTCTTTATCAGCACCAAGAACAAACAAA: -1.44.

Consider CTGTGAATTCTTAAGCCAAAGTCCAAGTTG, for which the binding signal (log2 normalized intensity) came out at 4.73. In the case of GCCGGAAAAAGTGAGGAGCAGCAGAGAGTC it was -1.37; in that of TTGTACAAAGGTCCTGTGGGGCCCAGAGCC, -0.13; in that of CCCAACCCTCTCCCACTCCCCTCCTCCAGA, 4.68. The same measure for ACAGGCCTCCCCCCTTCTGTTTCCAGAAAT: 3.59; for TGCACCCCCTTCCCACCTGCTGTCCAACCT: 4.74. The same measure for GGGTGGTGAAATGGGGGAAGGGCTGGAGAC: -1.39; for TAAGTGAAAGTACACAGTGCCTGCTTGCAG: -1.4; for TAGAAAGTCAGTGAAGGAGCTGACTAGATT: -1.25. Regarding TTACTTGCTGGAGAAAGAGGGGAAGGATGA, the binding signal (log2 normalized intensity) is -1.41. In the case of GAAGGTCGAGGCCAGGGATTAAAGAATTCG it was -1.29; in that of CTCTTTTACTGTACTTCTTTAGGACTGCTC, 1.37; in that of TACACCCCTCACTCCCTCCAGCTGTCTTGG, 3.21. In the case of TAGAAAGGAGTACACACCATAAGAGGCTCT it was -1.36; in that of CTGATTTCAAAGTTCAGTTTGATTACTTGG, 2.51. The same measure for ATGCCAGTGGGAAAACAAACTTTCCTCTCT: -1.25; for TTGCACTGCTCAGGGTGGGGTCTCGCTGCT: -1.13; for AGATAATGCCAGAAAGGTCTAAAAGTAGCT: -1.21. For GAGAAACGCACTCGCCTCTCCTGTTCCGGT, the binding signal (log2 normalized intensity) is -1.03. GTGGAAAGACAAGTTGAAGCCAGATTGTCA: the binding signal (log2 normalized intensity) was -0.804. In the case of TGGCTTCCGTGCCTGCATGGGCTGTCACCT it was -1.1; in that of CGTCCGTGCACCCTTCCTCTGCAGCCGCCC, 0.0254; in that of CGATAATTACCTGGTCAGAAGAAACATGCG, -0.8. In the case of AACTCAGTGAGGGCTATTGACAAAGACCAG it was -1.37; in that of AAAGGAAGGAATTTACTGCAGTCAGGGGTT, -0.376; in that of TATTTTCTTATCTGCCTAGGCATTTGGCTG, -1.3. The same measure for GATAAGAATTTTGTGCAATTACACAACTTC: 1.04; for GGAGAGGGAGAGTGAGTGAGTGTGTGTGTG: 2.35. GTTGACATTTGAACCCAACCGTCCAGAGTC: the binding signal (log2 normalized intensity) is 3.08. In the case of CCTCTAGATAAACCAAGCCTGCAGCACCTT it was -1.28; in that of GCACACTGGCAAATGTGAATGGACTCTGCC, 4.29.

Regarding TGAATAGGTCTTGGAATGTGACGGCAGGTC, the binding signal (log2 normalized intensity) is 1.25. As to AAGATAAGATGTACCATTCATGGACAGCCT, the binding signal (log2 normalized intensity) is -1.38. In the case of TCCAGAATTGTGTGGTTATCTGTTGGGGAA it was 2.14; in that of ACTCCTGTGCTGGAATGCTTTTCTAGAACC, 0.385. As to TGCATCGCAGTCGCCTGCAAGACAATACCT, the binding signal (log2 normalized intensity) was -1.35. The same measure for CTGGTGTGCTTTCTGTCCTCTCAAAGTCCA: 4.48; for AGGAGGGAGGCAGGGAGACAACCTGGGTGT: -1.35. In the case of ATTTGTCTCTGCTGGGCAGAGGGACAACTG it was 0.687; in that of TGATTTAATACGATATTAATGGTGACCCCT, 6; in that of GATTTGACTGGAATGTCAAAGGGACAGCAC, 0.375. In the case of CCCAGCTGAGATTCAGAATAGTTAAGTAAC it was -1.35. AACACTGACAGATTCCTGCTAACAGATAAA: the binding signal (log2 normalized intensity) is -1.3. The same measure for GAGGTGGGCCCAGGGTTCTCTGTGACCTTT: 7.62; for GTCAGCTTCACTGATAGCGAGTTATCTGCA: -1.03.

For GAAGGCCCCCAGGTAGCTGCCAATGCAAAT, the binding signal (log2 normalized intensity) was found to be 2.26. Turning to TTCCTTTTTTGGTTCCCCTTCCCCCAACAG, the binding signal (log2 normalized intensity) is 4.89. For the sequence TGTGGGCAAATAGGATTAGGAAACCTGGTA, the binding signal (log2 normalized intensity) is -1.35. The same measure for GCCTTGCACACTCGCCTGGCTCCCCACGTG: -1.47; for GAAGCTTAGAGAGAGAAATTGCTTAAGTGC: -1.33.

In the case of GGAAAGGGCACTGATAACCTGCATTTGAAA, the binding signal (log2 normalized intensity) was -1.18. In the case of GCTTGTCCTTTTGACCACAGTTATCTCCCC it was 3.02.
